Laboratory results from PubChem BioAssay AID686978 (National Center for Advancing Translational Sciences (NCATS), 2013).
About 64,000 (15%) of roughly 420,000 compounds were called active. The inconclusive results got no clear call from the source; some entries with a clear call stand among them for comparison. The call rests on the fitted dose curve; in most records, active means well fitted inhibition curve with a large enough effect; inconclusive means small, poorly fitted or top-dose-only effect; inactive means flat fitted curve, though single readings scatter. Potencies of inconclusive entries are left out as doubtful fits.

experiment: qHTS for Inhibitors of human tyrosyl-DNA phosphodiesterase 1 (TDP1): qHTS in cells in absence of CPT; settings: DT40 Tdp1-/- hTDP1 cells, no CPT, ATP luminescence, 48 h; activity change, negative = growth inhibition: at 46.2 µM (top of the series); further: nearly all actives have a fitted effect of over 55% in size
How it was run: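 No-CPT arm: Tdp1-/-;hTDP1 DT40 cells (400/well) plus compounds, incubated ≥48 hr at 37 °C. Readout CellTiter-Glo luminescence.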
On the % scale 0 is the no-effect control and ±100 the full control effect; potency means the concentration at half of the fitted maximal effect; tags describe the fitted curve by direction and shape.

Compound	activity change, negative = growth inhibition	Potency
CC1CCN(C(=O)CSc2nnc(-c3cc4ccccc4cc3O)n2Cc2ccco2)CC1	inactive: -28.9%	
COC(=O)c1[nH]c2cc(OC)ccc2c1NC(=O)CN1CCN(c2cccc(C)c2)C(C)C1 (stereo not given)		inconclusive [inhibitor, single point]
O=C(CSc1nc(C2CC2)nc2ccccc12)N1c2ccccc2Sc2ccccc21		inconclusive [inhibitor, partial curve]
O=C(c1cccs1)N1CCC(c2nc3ccccc3s2)CC1		inconclusive [inhibitor, partial curve]
CCOc1ccc(OCC)c(NC(=O)CN2CCN(c3cc(C)ccc3C)CC2)c1		active: 23.1 µM
O=C(NCC(c1ccco1)S(=O)(=O)c1cccs1)c1ccccc1 (stereo not given)		inconclusive [inhibitor, partial curve, poor fit]
Cc1cccc(CS(=O)(=O)c2nnc([C@H](Cc3ccccc3)NC(=O)OC(C)(C)C)o2)c1		active: 1.46 µM
CCOC(=O)c1c(NC(=O)CSc2nnc(-c3ccccc3)n2CC)sc(C(C)=O)c1C		inconclusive [inhibitor, single point]
COCCN(C(=O)COC(=O)CCC(=O)c1ccc(Cl)cc1)c1c(N)n(Cc2ccccc2)c(=O)[nH]c1=O	inactive: -21.3%	
O=C(COc1ccccc1)Nc1nc2c(s1)CCCC2		inconclusive [inhibitor, partial curve]
CCc1ccccc1NC(=O)C1CCN(S(=O)(=O)c2ccc(N3CCCC3=O)cc2)CC1	inactive: -37.9%	
COC(=O)c1cc(NC(=O)c2cc3c(-c4ccccc4F)nn(C)c3s2)cc(C(=O)OC)c1		inconclusive [inhibitor, single point]
COc1ccc(N(CC(=O)NN=C2CCCCCCC2)S(=O)(=O)c2ccccc2)cc1Cl		inconclusive [inhibitor, single point]
COc1ccc(NC(=O)Nc2ccc3c(c2)C(=O)N([C@H](C)CO)C[C@H](C)[C@@H](CN(C)S(=O)(=O)c2cccs2)O3)cc1		inconclusive [inhibitor, single point]
CCC(=O)Nc1cccc(NC(=S)NC(=O)c2cc3ccccc3o2)c1		inconclusive [inhibitor, full curve]
O=C(CN1CCN(c2ccccc2O)CC1)Nc1ccc([N+](=O)[O-])cc1Br		active: 23.1 µM
CCC1NC(=O)c2cccnc2-n2c1nc1cc(C)cc(C)c1c2=O (stereo not given)		inconclusive [inhibitor, single point]
Brc1ccc2oc(-c3ccn[nH]3)cc2c1		inconclusive [inhibitor, partial curve]

Compound	activity change, negative = growth inhibition	Potency
CC(=O)c1c(C(C)=O)c(C)n(-c2ccc(N)c(C)c2)c1C		inconclusive [inhibitor, single point]
COC(=O)c1cccc(CN2C(=O)C(C)Oc3ccc(C)cc32)c1 (stereo not given)		active: 20.6 µM
Cc1ccc(-n2c(C)cc(/C=N/NC(=O)CC3(C)OCCO3)c2C)cc1		inconclusive [inhibitor, single point]
O=C(NCc1ccccc1)C1c2ccccc2OCC(=O)N1C1CC1 (stereo not given)	inactive: -11.1%	
Cc1ccccc1NC(=O)c1cc(S(=O)(=O)c2ccccc2)ccc1Cl		inconclusive [inhibitor, single point]
O=C(Nc1ccc2oc(-c3cccnc3)nc2c1)c1ccc([N+](=O)[O-])o1		active: 8.2 µM
O=C(c1ccc(CS(=O)c2cccc(Cl)c2)o1)N1CCOCC1 (stereo not given)	inactive: 17.4%	
C[N+](C)(C)CCOC(=O)C1(c2ccccc2)CCCC1	inactive: -27.1%	
Cc1c(Cl)cccc1Nc1nn2c(=O)c3ccccc3nc2s1	inconclusive: -34.6% [inhibitor]	
COc1ccc(-n2ccn(CC(=O)Nc3ccccc3OC)c(=O)c2=O)cc1	inactive: 24.7%	
CCOC(=O)c1ccc(NC(=O)CN2C(=O)NC3(CCCCCCC3)C2=O)cc1		inconclusive [inhibitor, single point]
COC(=O)C1CCN(c2nc3ccccc3nc2C(C#N)C(=O)NCCc2ccccc2)CC1 (stereo not given)		inconclusive [inhibitor, partial curve]
COc1ccc(S(=O)(=O)N(C)CC(=O)Nc2ccccc2OC)cc1C		inconclusive [inhibitor, partial curve]
Cc1cccc(-n2c(SC(C)C(=O)O)nc3sc4c(c3c2=O)CCCC4)c1 (stereo not given)	inactive: 12.7%	
Cc1ccc(Cn2c(SCC(=O)NCc3ccccc3)nc3ccsc3c2=O)cc1		inconclusive [inhibitor, single point]
Cc1cccc(N2CCN(S(=O)(=O)c3ccc(-c4cnc(C5CC5)o4)cc3)CC2)c1C		active: 13 µM
CCOC(=O)c1c(-c2cccc([N+](=O)[O-])c2)csc1NC(=O)C1CCCCC1		inconclusive [inhibitor, single point]
